# Source: PubChem BioAssay AID1347073 (National Center for Advancing Translational Sciences (NCATS), 2019)
# About 200 (0.44%) of roughly 45,000 compounds were called active. Another 7% or so got no clear call; they are omitted. Calls come from the whole dose curve; as a rule, active = well fitted activation curve with a large enough effect; inconclusive = small, poorly fitted or top-dose-only effect; inactive = no such curve, though single readings can be large or run the other way. The list shows a part of the results.
# Assay: qHTS of TDP-43 Inhibitors: NCGC Sytravon Library Screen; note: nearly all actives have a fitted effect of over 55% in size; for growth rescue (activation): 0% is about no effect
# Details: yeast TDP-43 toxicity rescue, BacTiter-Glo growth, 24 h; series mostly up to 46.1 µM; growth rescue (activation): at the top concentration
# Method in brief: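 TDP-43-expressing yeast, pregrown in raffinose, seeded at OD600 0.02 in galactose medium with compound for 24 hr at 30 deg C. Growth read by BacTiter-Glo luminescence, so rescue of toxicity appears as activation.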
# Potency is the fitted concentration of half-maximal effect.
SMILES,Potency,growth rescue (activation)
CCCN(CC(=O)Nc1ccccc1Br)CC(=O)Nc1ccc(F)c(F)c1F,active: 11.2 µM,–
N#C/C(=C(/O)c1ccc2c(c1)OCO2)c1nc2cc(C(F)(F)F)ccc2s1,–,inactive: -5.55%
Cc1c(C)c2c(OCC(=O)NCC(=O)NCC(=O)O)cc3c(c2oc1=O)CCC(C)(C)O3,–,inactive: -1.59%
O=C(Nc1ccc(Oc2ccccc2)nc1)C1CCN(Cc2cccc(F)c2)CC1,–,inactive: -18%
COCCN(C(=O)CCC(=O)Nc1ccccn1)C(C(=O)NCCC(C)C)c1ccc(F)cc1 (stereo not drawn),–,inactive: 0.574%
CCOC(=O)Cn1c(=O)n(Cc2ccc(OC)cc2)c(=O)c2cccnc21,–,inactive: 20%
CCNS(=O)(=O)c1ccc(NC(=O)c2ccc(Cn3cc([N+](=O)[O-])cn3)o2)cc1,–,inactive: 12.3%
Cc1cccc(N(CC(=O)Nc2ccc(CC#N)cc2)S(C)(=O)=O)c1,–,inactive: 27.4%
c1ccc(CSc2nc3ccccc3[nH]2)cc1,–,inactive: 14.8%
COc1cccc(C2C(C(=O)OC(C)C)=C(C)N=c3s/c(=C\c4ccc(C(=O)O)cc4)c(=O)n32)c1 (stereo not drawn),–,inactive: -19%
C/C(N)=C(/C#N)C(=O)CSc1nncn1-c1ccccc1,–,inactive: 25.2%
COc1ccc(NC(=O)c2cc(-c3ccncc3)nc3ccccc23)c(OC)c1,–,inactive: 3.67%
CC(CN(C)Cc1ccccc1)OC(=O)c1ccc(F)cc1 (stereo not drawn),–,inactive: 7.34%
O=C(COc1ncnc2ccccc12)Nc1ccc(Cl)c([N+](=O)[O-])c1,–,inactive: 3.43%
CC(=O)[C@@H]1[C@@H](C(=O)c2ccc(C)cc2)[C@]2(C(=O)Nc3ccccc32)[C@H]2C=Cc3cc(F)ccc3N12,–,inactive: -10.4%
COC(=O)C1CCN(c2cnccn2)CC1,–,inactive: 3.55%
O=C(NC1CCCC1)C(c1ccc(Cl)cc1)N(C(=O)c1csnn1)C1CC1 (stereo not drawn),–,inactive: 1.42%
COc1ccccc1NC(=O)CC1C(=O)Nc2c1c(=O)n(C)c(=O)n2C (stereo not drawn),–,inactive: -3.1%
O=C(COc1ccccc1F)NNC(=O)c1ccc(F)c(S(=O)(=O)N2CCOCC2)c1,–,inactive: 13%
O=C(N=Nc1c(O)[nH]c2ccccc12)c1cc(-c2cccs2)[nH]n1,–,inactive: 14.6%
COc1ccc(-c2nnc(SCC(=O)c3cccs3)n2-c2ccc(Cl)cc2)cc1,–,inactive: 2.88%
O=C(NCc1ccccc1)NC1CCS(=O)(=O)C1 (stereo not drawn),–,inactive: 1.59%
CC1=NN(C(=O)c2cccnc2)C(O)(C(F)(F)F)C1 (stereo not drawn),–,inactive: 0.199%
CC(C(=O)Nc1ccc(Cl)cc1)N1C(=O)NC2(CCCC2)C1=O (stereo not drawn),–,inactive: 13.4%
Cc1c(F)cccc1NS(=O)(=O)c1ccc2c(c1)NC(=O)CO2,–,inactive: 4.72%
CC1=C(C(=O)Nc2ccccn2)C(c2ccc3c(c2)OCO3)C2=C(CC(C)(C)CC2=O)N1 (stereo not drawn),–,inactive: 12.2%
N#C/C(=C\c1ccccc1)C(=O)Nc1ccccn1,–,inactive: 6.59%

SMILES,Potency,growth rescue (activation)
C=CCOc1ccc(CN(C)C(=O)C2CCCO2)cc1 (stereo not drawn),–,inactive: -5.17%
COCC(C)NCc1cccc2ccccc12 (stereo not drawn),–,inactive: -6.1%
Cc1cc(NC(=O)CSc2nc3[nH]c(=O)cc(O)c3s2)ccc1Br,–,inactive: 18.2%
Cc1ccc(NC(=O)Cc2ccc(-n3cccc3)cc2)c(C)c1,–,inactive: 8.55%
COc1cccc(-c2cc(NC(C)=O)c3ncc(-c4cccc(C(C)=O)c4)n3c2)c1,–,inactive: 28.8%
OCCCNc1ncnc2c1ncn2[C@H]1CN(Cc2cccs2)C[C@@H](CO)O1,–,inactive: 4.02%
COc1ccccc1NS(=O)(=O)c1cc(NC(=O)CNC(=O)c2ccccc2)ccc1C,–,inactive: -8.6%
CCN(CC)S(=O)(=O)c1ccc(OC)c(NC(=O)CSc2cc(C)ccc2C)c1,–,inactive: 13.7%
CCOC(=O)c1ccccc1NC(=O)c1cn(-c2ccc(OC)cc2)c(=O)c2ccccc12,–,inactive: 17.6%
Cc1c(N=Cc2nc3ccccc3[nH]2)c(=O)n(-c2ccccc2)n1C,–,inactive: -19.7%
Cc1[nH]n(-c2ccccc2)c(=O)c1C=Nc1cccc(F)c1,–,inactive: 8.72%
CCN1CCCC1CNC(=O)CCc1nnc(CCC2CCCCC2)o1 (stereo not drawn),–,inactive: 4.32%
Cc1ccc(NC(=O)CSc2sc3c(O)cc(=O)[nH]c3c2C#N)cc1C,–,inactive: 23.9%
CC1(C(=O)OCc2cc(=O)n3cc(Br)ccc3n2)CC1(Cl)Cl (stereo not drawn),–,inactive: 28.8%
C#CC(CC)(CC)NC(=O)c1cc(S(=O)(=O)N2CCCCC2)ccc1N1CCOCC1,–,inactive: 14.9%
Cc1cccc(C(=O)NNC(=O)CCn2nnc3ccccc32)c1,–,inactive: -13.9%
COc1ccc(C(=O)NC(=S)NCCc2ccccc2)cc1,–,inactive: 9.62%
COc1cc(OC)cc(C(=O)Nc2ccc(NC(=O)c3ccco3)c(C)c2)c1,–,inactive: -8.37%
COc1ccc(/C=C(\NC(=O)c2ccccc2)C(=O)NCc2cccnc2)cc1,–,inactive: 12.6%
COc1ccc(NC(=O)C2CC(=O)N(c3ccccc3Cl)C2)c(OC)c1 (stereo not drawn),–,inactive: -13.1%
Nc1ccc(C(=O)OCC(=O)Nc2cccc(S(=O)(=O)NC3=NCCCCC3)c2)cc1[N+](=O)[O-],–,inactive: 23%
COc1ccc(NC(=O)c2ccc3c(c2)C(=O)N(CC2CCCO2)C3=O)c(OC)c1 (stereo not drawn),–,inactive: -1.5%
CCN(CC)S(=O)(=O)c1ccc2c(c1)N(CC(=O)Nc1cccc(C(C)=O)c1)C(=O)CO2,–,inactive: 2.42%
O=C(NCCCl)Nc1cc([N+](=O)[O-])ccc1Cl,–,inactive: 24.3%
COc1ccc(-c2nnc(SCC(=O)NC3CCCc4ccccc43)n2N)cc1 (stereo not drawn),–,inactive: 12.5%
CCCNC(=S)Nc1ccc(Cl)cc1C,–,inactive: 21.3%
